In the supplement of paper PMC11417369:
± gives the standard deviation of the averaged measurements. Some of the results follow.

test system: PfAP2-I AP2 domain 3 (GST-tagged); assay: gcPBM binding intensity (ln(normalized median fluorescence intensity)); higher = stronger DNA binding
Summary of the method: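 Alexa488 anti-GST antibody, scanned at 488 nm, detected GST-tagged P. falciparum DNA-binding domains that had been expressed in E. coli and incubated for 1 h on an Agilent 4 × 180k array. The array carried primer-extended double-stranded 36-bp intergenic genomic probes and negative controls. Binding intensity is the highest Masliner-normalised natural-log median intensity across replicate spots of either orientation of each probe.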

| Sequence | gcPBM binding intensity (ln) |
| --- | --- |
| AAATCACATAAAAATAGTACTTTTTTTTTTTTTTTT [XGTACX_site2696] | 8.5 ± 0.47 |
| TATATGTTTAATTTCACACACAAATATGCATTTTAA [CACACA_site7881] | 7.74 ± 0.5 |
| AAATAAATACTAGGCACACACACATATATATATATA [CACACA_site2079] | 9.12 ± 0.099 |
| ATTGTAAGGAAACACACACACATATATATGTATATA [CACACA_site676] | 7.74 ± 0.52 |
| ATTATTGTAATATTAGCACACATTACCTCACTACAA [CACACA_site2560] | 8.71 ± 0.37 |
| ATATATATATATATATGTACGTATAATATATATATG [XGTACX_site2212] | 9.22 ± 0.58 |
| ATTATTCAGGTAAAGTGTACAGGAGAAAAATAAAAT [XGTACX_site334] | 8.44 ± 0.54 |
| CGCACCCAAATATATACACACATATATATATATATA [CACACA_site1651] | 9.36 ± 0.38 |
| TTAATATTCCAGCTTTGTACATATATATATTATAAA [XGTACX_site7954] | 7.86 ± 0.38 |
| TTAATGGAAAAATAGGCACACACACCGATATACATA [CACACA_site8356] | 8.05 ± 0.71 |
| TTTTACATAAATTATAAATATATAAAATAAAAAAAA [CACACA_negctrl_site1499] | 7.48 ± 0.71 |
| CATATATATATTTTTTGTACATATATTTTTACATAT [XGTACX_site8419] | 7.95 ± 0.38 |
| AAAAAGAAGAAGAAATGTACGTAACTATATATTTAT [XGTACX_site4362] | 7.76 ± 0.76 |
| AGTACATTATAGAATACACACCTATATATATATATA [CACACA_site4447] | 9.4 ± 0.44 |
| AATTATTAAATATGTACACACGTACATTTTATAAAT [CACACA_site5341] | 7.71 ± 0.29 |
| TAATACATACACACATGTACATACAGAAATAAATAA [XGTACX_site3245] | 7.96 ± 0.2 |
| TATTTTGTTCTTTCCACACACAAATACATATATTGT [CACACA_site4071] | 8.22 ± 0.53 |
| AATATAAAAATGTTTACACACACACGGAAATATATT [CACACA_site7226] | 8.01 ± 0.76 |
| ATATATATATGTGGATGTACATATATCTCTTATTAT [XGTACX_site1748] | 8.89 ± 0.36 |
| TAAAATTAATAAAATATTTTCACTTAATATATATAA [CACACA_negctrl_site1550] | 7.52 ± 0.34 |
| ATGTTGTACAAACACACACACAAAAAAAAAATAAAA [CACACA_site2406] | 8.07 ± 0.17 |
| GGCATATATATATGCACACATACATATATACATGTG [CACACA_site3859] | 9.63 ± 0.16 |
| TACACATACAGACATACACACATACCCATATACTCA [CACACA_site5037] | 7.83 ± 0.42 |

| Sequence | gcPBM binding intensity (ln) |
| --- | --- |
| ATATTATACGCATATGTGCGCATACATTTTTTTGCA [GTGCAC_site9540] | 10.2 ± 0.64 |
| TTATTTACAAAACAAATCAAAATATCCAAAAGAATA [CACACA_negctrl_site1789] | 7.28 ± 0.33 |
| GAAATTACTTTATAAACACACATTTATTTTATTTTA [CACACA_site7007] | 7.95 ± 0.26 |
| TCATATTTATATAAATGTACTTAATTGGTTTCTTTA [XGTACX_site7848] | 7.66 ± 0.56 |
| ATGTTATTAATAATTGCACACATTTTTTTTTTTTTT [CACACA_site3920] | 9.12 ± 0.23 |
| AGATTGTAAGTAAACACACACACATATATATGTATA [CACACA_site675] | 7.57 ± 0.73 |
| ATTCATTCCATACTTTAACACACAAATATATTTAAT [CACACA_site7930] | 8.14 ± 0.55 |
| AAAAAAAAAAAAAACACACAGAAATATATATATATT [CACACA_site832] | 8.09 ± 0.52 |
| AAAGGAAAAGTTGACTGTACATAAGTAAAAAATAAT [XGTACX_site788] | 8.05 ± 0.61 |
| TTTATACAAATATGTACACACTAAATATATATTATG [CACACA_site4413] | 7.96 ± 0.33 |
| TCTTTTATATATAATAATTATATATAACATTCAAAC [GTGCAC_negctrl_site112] | 7.89 ± 0.44 |
| GTTAATCACCATGTGGTGCATATAAGGGCATATTAT [GTGCAC_site9748] | 11 ± 0.55 |
| AATTAATAAAAAAGGTGTACAGTAAATGCAATAATC [XGTACX_site7956] | 9.1 ± 0.5 |
| ATAAATTCATACATTTGTACACAAAAAAAAAAAAAA [XGTACX_site2435] | 8.12 ± 0.57 |
| CCTTATACGATATTATGTACGCATATGTGCATTTTT [XGTACX_site1570] | 8.91 ± 0.21 |
| ATTATTTGATTAAAGGTGCAAGGATAATAATAAAAC | 9.47 ± 0.17 |
| TAATGGTATAAAAAATGTACATGTTTTTTTACAATT [XGTACX_site4285] | 7.91 ± 0.53 |
| ATATATATATATTTATGTACATATTATTTATTCTTT [XGTACX_site6567] | 9.21 ± 0.53 |
| ACATATAATAAAATAGTGCATTGTTAGTTTTATATA | 10.4 ± 0.42 |
| TATTATATAATATACTGTACAATATCCATTATTTAC [XGTACX_site7091] | 7.81 ± 0.52 |
| TATATTTACTTATATGCACACATAAATGTGAATTAT [CACACA_site9258] | 9.22 |
| CTTAAAATATATTTAGTGCATATACTAATATATTAT | 10.2 ± 0.45 |
